Results reported in PubChem BioAssay AID651820 (National Center for Advancing Translational Sciences (NCATS), 2012).
Where “and” joins values, the source holds several entries; their conditions need not be identical. Identical values can stand only once. Screen size: about 340,000 compounds; about 12,000 (3.5%) were called active. The shares of active, inactive and inconclusive entries below differ from those in the screen. Calls follow the shape of the dose curve; as a rule, active = well fitted inhibition curve with a large enough effect; inconclusive = small, poorly fitted or top-dose-only effect, or another doubt; inactive = no such curve, though single readings can be large or run the other way. Potencies of inconclusive entries are doubtful fits and often do not repeat.

Assay: qHTS Assay for Inhibitors of Hepatitis C Virus (HCV)
Settings: Huh7.5.1 HCVcc-Cre (HCVcc is cell-culture hepatitis C virus) infection, luciferase reporter, 44 h; activity change, negative = inhibition: at 41.8 µM (top of the series) unless noted
Outline: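 Seed cells (1,000/well) for 4 h; treat with compound and infect with HCVcc-Cre, moi about 0.5. Incubate 44 h, then detect luciferase activity.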
% is scaled to controls: 0 for no effect and ±100 for the full control effect; potency is read from the fitted curve at half-maximal effect; tags tell the direction and shape of the fitted curve.

Structure (SMILES)	Potency	activity change, negative = inhibition
Cc1ccc(C(=O)CSc2nc(N)cc(=O)[nH]2)cc1C	inconclusive: 31.6 µM [inhibitor, single point]	–
O=C(Nc1ccc2nn(-c3ccccc3)nc2c1)c1cccnc1	inconclusive: 17.8 µM [inhibitor, partial curve]	–
COc1cccc(C(=O)NCCS(=O)(=O)N2CCCC2)c1	inconclusive: 5.62 µM [inhibitor, single point]	–
O=S(=O)(c1ccc(F)cc1)N1CCN=C1SCc1cccc(F)c1	inconclusive: 31.6 µM [inhibitor, single point]	–
Cc1csc2c(N3CCCCC3)ncnc12	–	inactive: -5.24%
O=C(OCC(=O)c1ccc(Cl)s1)c1ccc(CO)cc1	–	inactive: -1.32%
Cc1cccc(C(=O)NC(C(=O)Nc2ccc(S(=O)(=O)Nc3nccs3)cc2)C(C)C)c1 (configuration not stated)	–	inactive: 29.7%
Cc1cc(=O)oc2c(C)c(OC(C)C(=O)NC(Cc3c[nH]c4ccc(O)cc34)C(=O)O)ccc12 (configuration not stated)	inconclusive: 1.12 µM [inhibitor, partial curve]	–
CCc1nn(CCCC(=O)NCc2ccccc2Br)c(=O)c2cc3occc3n12	–	inactive: 37.6%
COC(=O)c1ccc(C(=O)OC)c(NC(=O)CN(c2ccc3c(c2)OCO3)S(C)(=O)=O)c1	inconclusive: 14.1 µM [inhibitor, partial curve]	–
COc1ccc(NS(=O)(=O)c2cccc(NC(=O)c3ccccn3)c2)cc1	inconclusive: 11.2 µM [inhibitor, partial curve]	–
COc1ccc(NC(=O)/C(C#N)=C/c2ccc(-c3ccccc3C(=O)O)o2)cc1	–	inactive: 21.2%
O=C(/C=C/c1ccc(OCCCF)cc1)Nc1ccnc(-c2cccnc2)n1	inconclusive: 2.51 µM [inhibitor, full curve]	–
COc1ccnc(Oc2ccc(C)cc2)c1C#N	inconclusive: 4.47 µM [inhibitor, partial curve]	–
O=C1C=C(N2CCN(C(=O)c3ccccc3)CC2)C2(CCCCC2)O1	–	inactive: -0.181%
CCOCCCNC(=S)N1CCCN(c2nc3cc(C)cc(C)c3cc2C#N)CC1	active: 11.2 µM	–
CCCCCn1c(CN2CCN(c3cccc(Cl)c3)CC2)nc2c1c(=O)[nH]c(=O)n2C	–	inactive: -12.7%
C=CCSc1nnc2n(-c3ccccc3OC)c(=O)c3c4c(sc3n12)CCC4	inconclusive: 22.4 µM [inhibitor, single point]	–
CCN(CC)CCCNC(=O)c1cc2nc3c(c(C(F)(F)F)n2n1)CCc1ccccc1-3	active: 1.58 µM	–
O=C(NC1CCCC1)C(c1ccccn1)N(C(=O)c1csnn1)c1ccccc1F (configuration not stated)	–	inactive: 9.11%
Cc1ccccc1-n1c(Cn2c(=O)sc3ccccc32)nnc1SCC(N)=O	inactive	–
CCOC(=O)c1c(C)[nH]c(N=Nc2ccccc2C)c1C	inconclusive: 1.12 µM [inhibitor, full curve]	–
COc1cc(-c2noc(C)c2C#Cc2ccccn2)cc(OC)c1OC	inconclusive: 10 µM [inhibitor, partial curve]	–
Cc1ccc(CCNC(=O)CN(c2ccc(C)cc2)S(=O)(=O)c2c(C)noc2C)cc1	–	inactive: 5.33%

Structure (SMILES)	Potency	activity change, negative = inhibition
COc1cc(C(=O)OCC(=O)N(CC(C)C)C2CCS(=O)(=O)C2)ccc1OCC(C)C (configuration not stated)	inconclusive: 4.47 µM [inhibitor, partial curve]	–
CCN(CCNC(=O)CN1CCN(Cc2ccc(Cl)cc2)C1=O)c1ccccc1	inconclusive: 11.2 µM [inhibitor, partial curve]	–
ClCC1CSC(=NC23CC4CC(CC(C4)C2)C3)O1 (configuration not stated)	inconclusive: 31.6 µM [inhibitor, single point]	–
CCOc1ccc(CNC(=O)c2cc3oc4ccccc4c3n2C)cc1	–	inactive: -14.3%
Cc1ccc(OCc2ccc(C(=O)NCc3cccnc3)cc2)cc1C	inconclusive: 31.6 µM [inhibitor, single point]	–
COc1ccccc1CN1CC(C(=O)NCc2nccn2C)CCC1=O (configuration not stated)	–	inactive: 12.1%
O=C(N/N=C/c1ccccn1)c1ccc(Cl)cc1	–	inactive: 6.59%
Cc1cc(/C=C(\C#N)C(=O)Nc2ccc(Cl)cc2)c(C)n1-c1ccc(N2CCOCC2)c([N+](=O)[O-])c1	inconclusive: 3.98 µM [inhibitor, full curve, poor fit]	–
COC(=O)/C(=C/c1ccc2c(c1)c1ccccc1n2C)NC(=O)c1ccccc1	inconclusive: 31.6 µM [inhibitor, single point]	–
Cc1ccccc1COc1cccc(/C=N/NC(=O)c2nnn(-c3nonc3N)c2C)c1	inconclusive: 7.94 µM [inhibitor, partial curve]	–
CN(CC(=O)Nc1ccccc1Br)C(=O)c1cc([N+](=O)[O-])ccc1N1CCOCC1	–	inactive: -27.6%
O=C(c1cc2ccccc2o1)N1CCN(S(=O)(=O)/C=C/c2ccccc2)CC1	inconclusive: 10 µM [inhibitor, partial curve]	–
COc1ccc(-c2cn(-c3ccccc3)c3[n+]2CCS3)cc1	inconclusive: 31.6 µM [inhibitor, single point] and inconclusive: 6.31 µM [inhibitor, partial curve]	–
CCC[C@H]1CC(=O)C=C(c2ccc(OC)cc2)ON1C(=O)OC(C)(C)C	–	inactive: -8.14%
CCOc1cnc(-c2ccc(Cl)cc2)o1	–	inactive: 4.11%
CC(C)(C)C(=O)COC(=O)c1cccc(NC(=O)c2ccco2)c1	–	inactive: -2.82%
CCCSc1ccc([C@H]2N[C@@](C)(C(=O)OC)[C@H]3C(=O)N(C)C(=O)[C@@H]23)cc1OC	–	inactive: 6.73%
C[C@@]12C(=O)Nc3ccccc3C(=O)N1[C@H]1c3cc(Br)ccc3OC[C@@H]1[C@@H]2c1ccccc1	inconclusive: 35.5 µM [inhibitor, partial curve]	–
O=C(c1ccc(S(=O)(=O)NCC2CCCO2)cc1)N1CCN(c2cccc(Cl)c2)CC1 (configuration not stated)	active: 11.2 µM	–
Cc1ccc(NC(=O)CN(C)C(=O)Cc2ccc(Cl)cc2Cl)cc1	inconclusive: 31.6 µM [inhibitor, single point]	–
CCOc1ccc(C(=O)N/N=C(\c2ccccc2)c2ccccn2)cc1	active: 10 µM	–
O=C(CN1C(=O)C(=O)c2ccccc21)c1ccccc1	–	inactive: 9.55%
Cc1cc(O)c2c(C)c(CC(=O)N3CCN(C(=O)C4COc5ccccc5O4)CC3)c(=O)oc2c1 (configuration not stated)	inconclusive: 1.12 µM [inhibitor, full curve, poor fit]	–
